According to the supplement of paper PMC3334620:
Whole data set: some 33,000 sequences, median “E-score (-0.5 to 0.5)” near -0.054, cut for the highest 2% near 0.35. The list shows a part of the results.

Target: T1, Stb5 (UniProt P38699)
T1 sequence: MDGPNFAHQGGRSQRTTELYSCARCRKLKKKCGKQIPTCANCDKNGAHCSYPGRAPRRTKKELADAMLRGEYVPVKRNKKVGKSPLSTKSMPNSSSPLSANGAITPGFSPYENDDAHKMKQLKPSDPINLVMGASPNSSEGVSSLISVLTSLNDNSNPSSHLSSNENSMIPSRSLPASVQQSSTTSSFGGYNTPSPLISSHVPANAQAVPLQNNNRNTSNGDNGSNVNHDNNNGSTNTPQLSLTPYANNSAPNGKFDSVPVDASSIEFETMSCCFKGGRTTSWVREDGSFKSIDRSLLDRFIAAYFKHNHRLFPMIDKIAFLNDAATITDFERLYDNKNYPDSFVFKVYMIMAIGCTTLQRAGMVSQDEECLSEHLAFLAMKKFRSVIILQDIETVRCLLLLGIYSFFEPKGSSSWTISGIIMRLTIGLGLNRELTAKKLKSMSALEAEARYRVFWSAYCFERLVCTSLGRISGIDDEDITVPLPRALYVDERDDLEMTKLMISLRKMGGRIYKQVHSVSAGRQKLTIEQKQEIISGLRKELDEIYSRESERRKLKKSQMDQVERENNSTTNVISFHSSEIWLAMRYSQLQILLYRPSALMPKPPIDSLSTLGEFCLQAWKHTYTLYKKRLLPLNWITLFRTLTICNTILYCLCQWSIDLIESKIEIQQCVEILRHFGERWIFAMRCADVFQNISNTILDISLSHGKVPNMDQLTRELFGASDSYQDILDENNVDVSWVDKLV
Assay: PBM E-score (8-mer binding enrichment) (E-score (-0.5 to 0.5)); higher = stronger / more preferred TF binding; most listed sequences are background and not binding sites
Conditions: protein concentration: 200 nM; construct: GST-full length
Description: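 Universal 'all 10-mer' protein binding microarrays (Agilent AMADID 015681) probed with GST-tagged S. cerevisiae TFs (full-length or DBD) made by in vitro transcription/translation (PURExpress), about 100-200 nM. Bound TF was detected with fluorescent anti-GST. Each ungapped 8-mer (which stands for itself and its reverse complement) is scored by the PBM enrichment score (E-score), a modified Wilcoxon-Mann-Whitney statistic from -0.5 to +0.5, computed with the Universal PBM Analysis Suite. Scale: above 0.35 generally sequence-specific binding.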

Sequence | PBM E-score
CAGCCTAC | -0.0887
CGCGGGCA | 0.305
CCTCGCCG | 0.0569
ACGGGCGC | 0.0712
CGTAAGCA | -0.151
AGATAAAC | 0.0577
CAGTCCAG | -0.128
CGGGCCAG | -0.0225
CTTGGGGC | 0.0335
AAGACATG | -0.124
CAGCGCAA | -0.0211
GGCCCAAA | 0.1
ACTGGACC | 0.0683
ATCATGAA | -0.00907
GAATGTGC | -0.0252
AGTTTAAA | 0.149
AGATGTTG | -0.103
ATGAGGGA | -0.293
ACAGTTAT | -0.0772
AGCTAGCA | -0.083
AGGTCGGG | 0.248
GCAGAAGC | -0.0355
GACGCTCA | 0.00113
GACCCCAA | -0.0607
AATGCAGT | -0.16

Sequence | PBM E-score
CCATGTGC | -0.0297
AGCCAGGG | -0.268
ACTGGATG | -0.257
AGCCTCTC | -0.299
CCTGCGAC | -0.0908
CAGCAGCG | 0.0594
CCACACCG | 0.264
CCCTTCAG | -0.243
ATCTCAGA | -0.137
CACCGATA | 0.351
AGTTATGG | 0.0212
ATTCACGC | -0.163
ATGATGCC | 0.14
AACCGGGC | 0.239
GATGTACC | 0.0308
GAAGCCCA | -0.14
GACTACGA | -0.184
AGCTGTAA | -0.0795
CCGGTGCA | 0.28
TATGGTCA | -0.127
CCGGCAGG | 0.183
CTCATATC | -0.132
CCTTTGAG | -0.217
ATTGAGCC | 0.0599
CATAAAGG | -0.0239

Sequence | PBM E-score
CAGTTTGC | -0.0486
CCTCCTAA | -0.0546
CAGTCTCC | -0.0247
GATAGACC | 0.167
CACCAGGC | -0.157
ATAAAAAC | 0.0121
CACCTAAG | -0.121
TAAGTAGA | -0.162
TATAAGGA | -0.0663
GGATATAC | 0.283
TACGTAGA | -0.182
ACAGCTCA | -0.252
CATTCCGC | 0.109
ATAGACAG | -0.256
CTCGGTTC | -0.0462
AAGTATTC | -0.186
AGAGTGCT | -0.0924
AACGCCTT | -0.00961
CAGCTCAA | -0.266
ATTTGGCC | -0.0827
ATCATAAT | -0.129
CCCTGCGA | -0.321
CGTCGCAA | 0.0017
CGTCGGCA | 0.334
CGGCGTGA | 0.326

Sequence | PBM E-score
CCTACCAA | -0.101
AGGGTGCA | -0.155
CTTTCTGA | -0.199
AACTTGAA | 0.0989
AAATCACC | 0.245
AATCCGCT | 0.177
GCACAGGA | -0.175
GTCAAAGA | -0.189
GGTCTGCA | 0.178
CGCTACGC | 0.178
ACGCTCAT | -0.149
ATTTCGGG | 0.13
AAAGGGAC | -0.0879
ACTGGTAT | -0.105
CTTTATAA | 0.219
ACTCGACA | -0.0355
CTACGATC | -0.223
ACAATTGC | -0.0403
ACATTTAC | -0.168
CGGCGTAG | 0.13
ACCGGGTC | 0.19
CTAAAGGC | -0.135
GGGCATAC | 0.203
CGTTTTTA | 0.0655
CCTAGTGA | 0.059

Sequence | PBM E-score
ATTCAGAC | -0.201
CTCTGTCA | -0.208
GTTTCATA | 0.0002
ATTTCAGA | -0.163
CGCAACGA | -0.0209
AACTTCGG | 0.107
CAGATGCG | -0.153
TTCGGCAA | 0.15
CTCAAAAA | -0.0307
AAACTAGG | 0.0203
GTTGAACA | -0.121
GGTCCCCA | -0.107
TAAGAAAA | -0.226
CGTTCCAA | 0.081
CCACAAAC | 0.0338
GCCCGTAC | 0.157
AGCCCTCA | -0.114
CTATCAAA | -0.182
TCAAGCCA | -0.184
CTCCGGGC | 0.118
CCCCGAGC | 0.2
AGATGCTG | -0.279
GAAAGGTA | -0.212
GCGTGCCC | -0.139
CCTAGAGA | -0.26

Sequence | PBM E-score
CCTACGAG | -0.261
TCGGCGCA | 0.157
GCAGCTGC | -0.0296
CTAGTGTA | -0.134
AAAAACCC | 0.226
GATGCTCC | 0.00234
GGTCTGAC | 0.0773
CTGTCCAA | -0.0726
CGAAAGTA | -0.00846
CTTACTTC | -0.0525
CCACCCTA | -0.157
GGGCGCCA | -0.0493
GACTCGGA | 0.151
CCATTTCG | -0.0141
AACATAAC | -0.0581
CCGATTAG | 0.283
CCATTTAG | -0.132
ATCCTGGG | -0.243
TCTTGTAA | -0.0733
CACCTGGA | -0.251
ACGGAAGG | 0.08
CTCGGTTA | 0.0761
CTTTAATC | 0.00719
CAAGGGAA | -0.128
GACTGTCA | -0.046

Sequence | PBM E-score
TATAGCAA | 0.0118
CAGAAGTC | -0.0591
GTCTTAAA | 0.179
ACCGCGCC | 0.288
CACGAAAG | 0.0262
AGTGAACC | -0.181
CATACGTC | 0.147
GGCGTCCC | 0.132
ATAATCTA | 0.0554
CGCCCTAA | 0.0416
CAGCCAGC | -0.167
ATAAGACC | 0.397
ACCGGCCT | 0.22
AACCTTGA | -0.247
CGCCGGAA | 0.168
GACACCAA | -0.124
CTGTCCCC | -0.0582
ATCCCCGC | 0.453
AAGCCAGG | -0.0808
GATTATAC | 0.138
ATAGGTGA | -0.0836
CTACTCGC | -0.149
